This is one part of the list.
Tested on: S. aureus RN4220
Test: growth inhibition call (relative growth <= 0.2)
Settings: 50 µM

Growth inhibition call, inactive:
O=C(Nc1ccc2c(c1)[C@H]1C[C@H](CC(=O)N3CCc4ccccc4C3)O[C@@H](CO)[C@H]1O2)C1CCOCC1
C[C@@H]1CN([C@@H](C)CO)C(=O)c2cc(NC(=O)c3ccccc3)ccc2O[C@@H](C)CCCCO[C@@H]1CN(C)C(=O)C1CCCCC1
COc1cccc(-c2ccc3c(c2)O[C@H](CN(C)Cc2cncnc2)[C@H](C)CN([C@@H](C)CO)S3(=O)=O)c1
C[C@H]1CCCCO[C@@H](CN(C)Cc2ccc(C(F)(F)F)cc2)[C@@H](C)CN([C@@H](C)CO)C(=O)c2cc(NC(=O)CCCN(C)C)ccc2O1
CCNC(=O)C[C@@H]1CC[C@@H](NC(=O)C2CC2)[C@@H](CO)O1
COc1cc2c(cc1OC)-c1onc(-c3ccc(OCCO[Si](C(C)C)(C(C)C)C(C)C)cc3)c1CCCN(C[C@@H](C)OC(=O)NCCCCCC(=O)NO)CC2
CN(C)CCCNC(=O)C[C@H]1CC[C@@H]2[C@@H](COc3ccc(NC(=O)c4cccc(F)c4)cc3C(=O)N2C)O1
C[C@H](CO)N1C[C@H](C)[C@@H](CN(C)CC2CC2)Oc2ccc(NS(=O)(=O)c3ccccc3)cc2C1=O
C[N+](C)(C)CCCC[C@@H]1NC(=O)[C@@H]2C[C@H](C(=O)NCc3ccc(F)cc3)[C@H](c3ccc(O)cc3)N2C1=O

Source: the antibiotic and cytotoxicity screens of Wong et al. (2023)
